Source: patent publication US20060035848A1, “Broad-spectrum inhibitor of viruses in the Flaviviridae family” (ZymeTx, Inc., priority 2004, published 2006)

System: Dengue virus (DV) type 2, New Guinea strain
Assay: CPE assay against dengue virus

| SMILES | EC50 (DV, CPE assay, MA-104 cells) | EC50 (Dengue virus, MA104) |
| --- | --- | --- |
| NC(=O)c1ncn([C@@H]2O[C@H](CO)[C@@H](O)[C@H]2O)n1 [Ribavirin, reference compound] | >80 µg/mL | > 80 µg/mL |
| Nc1nc(=O)n2ccn([C@@H]3O[C@H](CO)[C@@H](O)[C@H]3O)c2n1 [ZX-2401, 2-amino-8-(β-D-ribofuranosyl) imidazo [1,2-a]-s-triazine-4-one] | – | 10 µg/mL (≈ 35.3 µM) |

Values after ≈ are worked out from the molar mass of the structure shown.
